The results in this text go back to the supplement of paper PMC9588766.

Where a name gives a salt, the structure may show the parent alone. Over roughly 1,900 compounds, “cell viability of compound + 1 nM pemigatinib relative to pemigatinib-only (DMSO) wells” has its median near 0.95; the lowest 2% begin near 0.22. The list shows a part of the results.

The test has as its system PDC-DUC18828. The test can be described thus: cell viability of compound + 1 nM pemigatinib relative to pemigatinib-only (DMSO) wells (fraction); PDC-DUC18828 is a patient-derived cholangiocarcinoma cell line; higher = less growth inhibition. The conditions noted are these: first compound 1 µM; pemigatinib concentration 1 nM; 72 h. The method, then:
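Selleck Bioactive library screen in the patient-derived FGFR2 fusion-positive ICC cell line PDC-DUC18828 (500 cells/well). Each compound was tested at 1 uM with 1 nM pemigatinib, in triplicate, for 72 h. Viability was read by CellTiter-Glo and normalised to plate DMSO controls. Value is the paper's averaged normalised viability.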
As for `Nc1cccc2c1C(=O)N(C1CCC(=O)NC1=O)C2=O` (stereo not given) [Pomalidomide] + CCN1C(=O)N(c2c(F)c(OC)cc(OC)c2F)Cc2cnc3[nH]c(CN4CCOCC4)cc3c21 [pemigatinib], the cell viability is 1.04.

In the case of `O=C1Nc2ccccc2/C1=C1/Nc2ccccc2C1=O` [Indirubin] + CCN1C(=O)N(c2c(F)c(OC)cc(OC)c2F)Cc2cnc3[nH]c(CN4CCOCC4)cc3c21 [pemigatinib], the cell viability was determined as 0.939. Take `O=C(O)C(O)Cc1ccc(O)c(O)c1` (stereo not given) [Sodium Danshensu] + CCN1C(=O)N(c2c(F)c(OC)cc(OC)c2F)Cc2cnc3[nH]c(CN4CCOCC4)cc3c21 [pemigatinib]: the cell viability was determined as 0.951. Consider `COc1cc(C(=O)O)ccc1NC(=O)[C@@H]1N[C@@H](CC(C)(C)C)[C@](C#N)(c2ccc(Cl)cc2F)[C@H]1c1cccc(Cl)c1F` [Idasanutlin (RG-7388)] + CCN1C(=O)N(c2c(F)c(OC)cc(OC)c2F)Cc2cnc3[nH]c(CN4CCOCC4)cc3c21 [pemigatinib], for which the cell viability came to 0.942. In the case of `N[C@@H](Cc1cc(I)c(Oc2cc(I)c(O)c(I)c2)c(I)c1)C(=O)O` [L-Thyroxine] + CCN1C(=O)N(c2c(F)c(OC)cc(OC)c2F)Cc2cnc3[nH]c(CN4CCOCC4)cc3c21 [pemigatinib], the cell viability came out at 1.02. As for `CC1(C)CCC(C)(C)c2cc(NC(=O)c3ccc(C(=O)O)cc3)ccc21` [Tamibarotene] + CCN1C(=O)N(c2c(F)c(OC)cc(OC)c2F)Cc2cnc3[nH]c(CN4CCOCC4)cc3c21 [pemigatinib], the cell viability stood at 0.903.

As for `CN(C)CC/C=C1/c2ccccc2Sc2ccc(Cl)cc21` [Chlorprothixene] + CCN1C(=O)N(c2c(F)c(OC)cc(OC)c2F)Cc2cnc3[nH]c(CN4CCOCC4)cc3c21 [pemigatinib], the cell viability was 0.93. On to `Cn1cc(CNCC2CCN(c3ncc(C(=O)NO)cn3)CC2)c2ccccc21` + CCN1C(=O)N(c2c(F)c(OC)cc(OC)c2F)Cc2cnc3[nH]c(CN4CCOCC4)cc3c21 [pemigatinib], for which the cell viability is 0.0657. Take `CC(=O)[C@H]1CC[C@H]2[C@@H]3CCC4=CC(=O)CC[C@]4(C)[C@H]3CC[C@]12C` [Progesterone] + CCN1C(=O)N(c2c(F)c(OC)cc(OC)c2F)Cc2cnc3[nH]c(CN4CCOCC4)cc3c21 [pemigatinib]: the cell viability is 0.926. For the compound `CN(C)CCOC(c1ccccc1)c1ccccc1` [Diphenhydramine HCl] + CCN1C(=O)N(c2c(F)c(OC)cc(OC)c2F)Cc2cnc3[nH]c(CN4CCOCC4)cc3c21 [pemigatinib], the cell viability is 1.03. In the case of `COc1ccc2[nH]c([S+]([O-])Cc3ncc(C)c(OC)c3C)nc2n1` (stereo not given) [Tenatoprazole] + CCN1C(=O)N(c2c(F)c(OC)cc(OC)c2F)Cc2cnc3[nH]c(CN4CCOCC4)cc3c21 [pemigatinib] it was 0.966; in that of `CCOC(=O)CCNc1cc(N2CCc3ccccc3CC2)nc(-c2ccccn2)n1` + CCN1C(=O)N(c2c(F)c(OC)cc(OC)c2F)Cc2cnc3[nH]c(CN4CCOCC4)cc3c21 [pemigatinib], 0.822; in that of `CCNC(=O)c1[nH]nc(-c2cc(Cl)c(O)cc2O)c1-c1ccc(OC)cc1` + CCN1C(=O)N(c2c(F)c(OC)cc(OC)c2F)Cc2cnc3[nH]c(CN4CCOCC4)cc3c21 [pemigatinib], 0.701. Regarding `C[C@H](NC(=O)/C(C#N)=C/c1cccc(Br)n1)c1ccccc1` + CCN1C(=O)N(c2c(F)c(OC)cc(OC)c2F)Cc2cnc3[nH]c(CN4CCOCC4)cc3c21 [pemigatinib], the cell viability is 0.934. As to `CC(C)c1ccc(NC(=O)Cn2cnc3c2c(=O)n(C)c(=O)n3C)cc1` + CCN1C(=O)N(c2c(F)c(OC)cc(OC)c2F)Cc2cnc3[nH]c(CN4CCOCC4)cc3c21 [pemigatinib], the cell viability stood at 0.863. For the compound `CCNC(=O)Nc1ccc(-c2nc3c(c(N4CCOC[C@@H]4C)n2)CCN(C2COC2)C3)cc1` + CCN1C(=O)N(c2c(F)c(OC)cc(OC)c2F)Cc2cnc3[nH]c(CN4CCOCC4)cc3c21 [pemigatinib], the cell viability worked out at 0.446. With `CCCN(CCC)S(=O)(=O)c1ccc(C(=O)O)cc1` [Probenecid] + CCN1C(=O)N(c2c(F)c(OC)cc(OC)c2F)Cc2cnc3[nH]c(CN4CCOCC4)cc3c21 [pemigatinib], the cell viability amounted to 1.02. Turning to `C[C@]12CC[C@@H]3c4ccc(O)cc4CC[C@H]3[C@@H]1CC[C@@H]2O` [Estradiol] + CCN1C(=O)N(c2c(F)c(OC)cc(OC)c2F)Cc2cnc3[nH]c(CN4CCOCC4)cc3c21 [pemigatinib], the cell viability worked out at 0.944. Consider `Cc1ncc(CO)c(CO)c1O` [Pyridoxine HCl] + CCN1C(=O)N(c2c(F)c(OC)cc(OC)c2F)Cc2cnc3[nH]c(CN4CCOCC4)cc3c21 [pemigatinib], for which the cell viability is 0.895. The same measure for `O=C(O)c1ccc(-c2c[nH]c3ncc(-c4ccccc4)cc23)cc1C1CCCC1` + CCN1C(=O)N(c2c(F)c(OC)cc(OC)c2F)Cc2cnc3[nH]c(CN4CCOCC4)cc3c21 [pemigatinib]: 0.904; for `CC1(C)[C@H](C(=O)O)N2C(=O)C[C@H]2S1(=O)=O` [Sulbactam sodium] + CCN1C(=O)N(c2c(F)c(OC)cc(OC)c2F)Cc2cnc3[nH]c(CN4CCOCC4)cc3c21 [pemigatinib]: 0.932; for `CC1(C)[C@H](C(=O)O)N2C(=O)C[C@H]2S1(=O)=O` [Sulbactam] + CCN1C(=O)N(c2c(F)c(OC)cc(OC)c2F)Cc2cnc3[nH]c(CN4CCOCC4)cc3c21 [pemigatinib]: 0.953.

For the compound `C=CC(=O)Nc1cc(Nc2nccc(-c3cn(C)c4ccccc34)n2)c(OC)cc1N(C)CCN(C)C` + CCN1C(=O)N(c2c(F)c(OC)cc(OC)c2F)Cc2cnc3[nH]c(CN4CCOCC4)cc3c21 [pemigatinib], the cell viability is 0.859.

Turning to `C#Cc1cccc(Nc2ncnc3cc4c(cc23)OCCOCCOCCO4)c1` [Icotinib] + CCN1C(=O)N(c2c(F)c(OC)cc(OC)c2F)Cc2cnc3[nH]c(CN4CCOCC4)cc3c21 [pemigatinib], the cell viability stood at 0.801. Consider `Cc1ccc(NCCCc2ccccc2)c(N)c1` + CCN1C(=O)N(c2c(F)c(OC)cc(OC)c2F)Cc2cnc3[nH]c(CN4CCOCC4)cc3c21 [pemigatinib], for which the cell viability came to 1.04. Turning to `C=CC(=O)Nc1cc(Nc2nccc(-c3c[nH]c4ccccc34)n2)c(OC)cc1N(C)CCN(C)C` + CCN1C(=O)N(c2c(F)c(OC)cc(OC)c2F)Cc2cnc3[nH]c(CN4CCOCC4)cc3c21 [pemigatinib], the cell viability was found to be 0.776. Take `CC1=C(/C=C/C(C)=C/C=C/C(C)=C/C(=O)O)C(C)(C)CCC1` [Tretinoin] + CCN1C(=O)N(c2c(F)c(OC)cc(OC)c2F)Cc2cnc3[nH]c(CN4CCOCC4)cc3c21 [pemigatinib]: the cell viability was 0.86. In the case of `C[C@]12CC[C@H](O)CC1=CC[C@@H]1[C@@H]2CC[C@]2(C)C(n3cnc4ccccc43)=CC[C@@H]12` [Galeterone] + CCN1C(=O)N(c2c(F)c(OC)cc(OC)c2F)Cc2cnc3[nH]c(CN4CCOCC4)cc3c21 [pemigatinib], the cell viability came out at 0.923.

Take `N=C(N)NS(=O)(=O)c1ccc(N)cc1` [Sulfaguanidine] + CCN1C(=O)N(c2c(F)c(OC)cc(OC)c2F)Cc2cnc3[nH]c(CN4CCOCC4)cc3c21 [pemigatinib]: the cell viability came out at 1.02. As to `O=C(Nc1nc2cccc(-c3ccc(CN4CCS(=O)(=O)CC4)cc3)n2n1)C1CC1` [Filgotinib (GLPG0634)] + CCN1C(=O)N(c2c(F)c(OC)cc(OC)c2F)Cc2cnc3[nH]c(CN4CCOCC4)cc3c21 [pemigatinib], the cell viability was 0.911. Consider `COc1ccc2ccc(=O)oc2c1CC=C(C)C` [Osthole] + CCN1C(=O)N(c2c(F)c(OC)cc(OC)c2F)Cc2cnc3[nH]c(CN4CCOCC4)cc3c21 [pemigatinib], for which the cell viability is 0.951. `CNS(=O)(=O)CCc1ccc2[nH]cc(C3CCN(C)CC3)c2c1` [Naratriptan] + CCN1C(=O)N(c2c(F)c(OC)cc(OC)c2F)Cc2cnc3[nH]c(CN4CCOCC4)cc3c21 [pemigatinib]: the cell viability was determined as 1.03.

With `CC(=O)Oc1ccccc1C(=O)O` [Aspirin] + CCN1C(=O)N(c2c(F)c(OC)cc(OC)c2F)Cc2cnc3[nH]c(CN4CCOCC4)cc3c21 [pemigatinib], the cell viability came to 0.856. `N#CSc1cc(SC#N)c(N)nc1N` + CCN1C(=O)N(c2c(F)c(OC)cc(OC)c2F)Cc2cnc3[nH]c(CN4CCOCC4)cc3c21 [pemigatinib]: the cell viability amounted to 0.965. For the compound `CCCCc1nc2cc(/C=C/C(=O)NO)ccc2n1CCN(CC)CC` [Pracinostat (SB939)] + CCN1C(=O)N(c2c(F)c(OC)cc(OC)c2F)Cc2cnc3[nH]c(CN4CCOCC4)cc3c21 [pemigatinib], the cell viability was 0.463. In the case of `O=C(O)/C=C/c1ccc(O)c(O)c1` [Caffeic Acid] + CCN1C(=O)N(c2c(F)c(OC)cc(OC)c2F)Cc2cnc3[nH]c(CN4CCOCC4)cc3c21 [pemigatinib], the cell viability stood at 0.932. In the case of `CC1(C)CC(=O)c2c(C(F)(F)F)nn(-c3ccc(C(N)=O)c(N[C@H]4CC[C@H](O)CC4)c3)c2C1` + CCN1C(=O)N(c2c(F)c(OC)cc(OC)c2F)Cc2cnc3[nH]c(CN4CCOCC4)cc3c21 [pemigatinib], the cell viability was 0.295. Turning to `COc1cc2nc(N(C)CCCNC(=O)C3CCCO3)nc(N)c2cc1OC` (stereo not given) [Alfuzosin HCl] + CCN1C(=O)N(c2c(F)c(OC)cc(OC)c2F)Cc2cnc3[nH]c(CN4CCOCC4)cc3c21 [pemigatinib], the cell viability is 0.928. In the case of `O=C(NO)c1cccc(C(=O)NCCc2ccccc2)c1` + CCN1C(=O)N(c2c(F)c(OC)cc(OC)c2F)Cc2cnc3[nH]c(CN4CCOCC4)cc3c21 [pemigatinib] it was 0.859; in that of `N=C(N)Nc1ccc(C(=O)Oc2ccc3cc(C(=N)N)ccc3c2)cc1` [Nafamostat Mesylate] + CCN1C(=O)N(c2c(F)c(OC)cc(OC)c2F)Cc2cnc3[nH]c(CN4CCOCC4)cc3c21 [pemigatinib], 1.01.
